Source: patent US20210380663A1 (ACCELERON PHARMA, published 2021)
Where two headings read alike, the source gives them in different places. Each block holds one binder with its values, some of them ahead of it.

Key:
TGFβ3 = biological target: T1, TGFβ3 (human, UniProt P10600 301-412); assay: cell-based or functional assay
T1 sequence (looked up): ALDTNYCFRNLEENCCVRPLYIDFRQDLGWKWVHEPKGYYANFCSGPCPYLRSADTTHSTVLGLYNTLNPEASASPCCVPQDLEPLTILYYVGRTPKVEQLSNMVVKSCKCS

activin A = biological target: T2, activin A (UniProt P08476 311-426); assay: cell-based or functional assay
T2 sequence (looked up): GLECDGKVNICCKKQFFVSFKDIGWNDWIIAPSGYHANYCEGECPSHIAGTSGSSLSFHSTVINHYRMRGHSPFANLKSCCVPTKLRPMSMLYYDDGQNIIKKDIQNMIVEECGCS

GDF11 = GDF11 (UniProt O95390 299-407); assay: cell-based or functional assay
TGFβ1 [1] = biological target: T3, TGFβ1 (human, UniProt P01137 fragment); assay: cell-based or functional assay
TGFβ1 [2] = biological target: T3, TGFβ1; assay: cell-based or functional assay; remark: listed apart in the source
TGFβ1 [3] = biological target: T3, TGFβ1; assay: SPR (Biacore)
TGFβ1 [4] = biological target: T3, TGFβ1; assay: cell-based or functional assay; remark: listed apart in the source
TGFβ1 [5] = biological target: T3, TGFβ1; assay: cell-based or functional assay; remark: listed apart in the source

T3 sequence (P01137 279-390 limits assumed): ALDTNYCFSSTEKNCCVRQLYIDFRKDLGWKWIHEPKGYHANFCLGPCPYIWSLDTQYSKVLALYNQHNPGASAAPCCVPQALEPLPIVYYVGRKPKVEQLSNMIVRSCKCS
GDF11, sequence (O95390 299-407 limits assumed): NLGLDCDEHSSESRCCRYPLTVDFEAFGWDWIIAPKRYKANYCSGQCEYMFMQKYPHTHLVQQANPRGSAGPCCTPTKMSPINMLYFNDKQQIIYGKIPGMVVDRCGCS

- IC50; inhibition of TGFβ3 signalling, CAGA12 reporter gene assay in A549 cells (TGFβ3): 0.0114 nM
- IC50; inhibition of activin A signalling, CAGA12 reporter gene assay in A204 cells (activin A): 0.0891 nM
- IC50; inhibition of GDF11 signalling, CAGA12 reporter gene assay in A204 cells (GDF11): 0.171 nM
- IC50; inhibition of TGFβ1 signalling, CAGA12 reporter gene assay in A549 cells (TGFβ1 [1]): 0.0206 nM
B1: ActRIIB-Fc-(G4S)4G-TGFBRII homodimer (4-arm) (Fc fusion)
ActRIIB ECD - GGG - Fc - linker - TGFβRII ECD fusion chain: GASGRGEAETRECIYYNANWELERTNQSGLERCEGEQDKRLHCYASWRNSSGTIELVKKGCWLDDFNCYDRQECVATEENPQVYFCCCEGNFCNERFTHLPEAGGPEVTYEPPPTAPTG[sequence of human IgG1 Fc and a few adjoining residues not given]AGGGGSGGGGSGGGGSGGGGSGTIPPHVQKSDVEMEAQKDEIICPSCNRTAHPLRHINNDMIVTDNNGAVKFPQLCKFCDVRFSTCDNQKSCMSNCSITSICEKPQEVCVAVWRKNDENITLETVCHDPKLPYHDFILEDAASPKCIMKEKKKPGETFFMCSCSSDECNDNIIFSEEYNTSNPD

- IC50; inhibition of TGFβ1 signalling, CAGA12 luciferase reporter in A549 cells (TGFβ1 [2]): 5.67 nM
B2: hTβRII extended hinge-hFc (Fc fusion)
chain: GATIPPHVQKSDVEMEAQKDEIICPSCNRTAHPLRHINNDMIVTDNNGAVKFPQLCKFCDVRFSTCDNQKSCMSNCSITSICEKPQEVCVAVWRKNDENITLETVCHDPKLPYHDFILEDAASPKCIMKEKKKPGETFFMCSCSSDECNDNIIFSEEYNTSNPDTGGG[sequence of human IgG1 Fc not given]
notes: Expressed in CHO cells

- IC50; inhibition of TGFβ1 signalling, CAGA12 luciferase reporter in A549 cells (TGFβ1 [2]): 0.22 nM
B3: hTβRII (G4S)3-hFc (Fc fusion)
chain: GATIPPHVQKSDVEMEAQKDEIICPSCNRTAHPLRHINNDMIVTDNNGAVKFPQLCKFCDVRFSTCDNQKSCMSNCSITSICEKPQEVCVAVWRKNDENITLETVCHDPKLPYHDFILEDAASPKCIMKEKKKPGETFFMCSCSSDECNDNIIFSEEYNTSNPDTGGGGSGGGGSGGG[sequence of human IgG1 Fc and a few adjoining residues not given]
notes: Expressed in CHO cells

- IC50; inhibition of TGFβ1 signalling, CAGA12 luciferase reporter in A549 cells (TGFβ1 [2]): 0.07 nM
B4: hTβRII (G4S)4-hFc (Fc fusion)
chain: GATIPPHVQKSDVEMEAQKDEIICPSCNRTAHPLRHINNDMIVTDNNGAVKFPQLCKFCDVRFSTCDNQKSCMSNCSITSICEKPQEVCVAVWRKNDENITLETVCHDPKLPYHDFILEDAASPKCIMKEKKKPGETFFMCSCSSDECNDNIIFSEEYNTSNPDTGGGGSGGGGSGGGGSGGG[sequence of human IgG1 Fc and a few adjoining residues not given]
notes: Expressed in CHO cells

- Kd (TGFβ1 [3]): 0.0088 nM
- IC50 (read off the curve); TGFβ1 (640 pg/mL) signalling, CAGA12 luciferase reporter in A549 cells (TGFβ1 [4]): ~3 ng/mL
- IC50; inhibition of TGFβ1 signalling, CAGA12 luciferase reporter in A549 cells (TGFβ1 [5]): 0.03 nM
B5: hTβRII (G4S)5-hFc (Fc fusion)
chain: GATIPPHVQKSDVEMEAQKDEIICPSCNRTAHPLRHINNDMIVTDNNGAVKFPQLCKFCDVRFSTCDNQKSCMSNCSITSICEKPQEVCVAVWRKNDENITLETVCHDPKLPYHDFILEDAASPKCIMKEKKKPGETFFMCSCSSDECNDNIIFSEEYNTSNPDTGGGGSGGGGSGGGGSGGGGSGGG[sequence of human IgG1 Fc and a few adjoining residues not given]
notes: Expressed in CHO cells

- IC50; inhibition of TGFβ1 signalling, CAGA12 luciferase reporter in A549 cells (TGFβ1 [2]): 7.69 nM
B6: hTβRII-hFc (Fc fusion)
chain: GATIPPHVQKSDVEMEAQKDEIICPSCNRTAHPLRHINNDMIVTDNNGAVKFPQLCKFCDVRFSTCDNQKSCMSNCSITSICEKPQEVCVAVWRKNDENITLETVCHDPKLPYHDFILEDAASPKCIMKEKKKPGETFFMCSCSSDECNDNIIFSEEYNTSNPDTG[sequence of human IgG1 Fc and a few adjoining residues not given]
notes: Expressed in CHO cells

- IC50; inhibition of TGFβ1 signalling, CAGA12 luciferase reporter in A549 cells (TGFβ1 [2]): 1.12 nM
B7: hTβRII (G4S)2-hFc (Fc fusion)
chain: GATIPPHVQKSDVEMEAQKDEIICPSCNRTAHPLRHINNDMIVTDNNGAVKFPQLCKFCDVRFSTCDNQKSCMSNCSITSICEKPQEVCVAVWRKNDENITLETVCHDPKLPYHDFILEDAASPKCIMKEKKKPGETFFMCSCSSDECNDNIIFSEEYNTSNPDTGGGGSGGG[sequence of human IgG1 Fc and a few adjoining residues not given]
notes: Expressed in CHO cells

- Kd (TGFβ1 [3]): 0.0038 nM
- IC50 (read off the curve); TGFβ1 (640 pg/mL) signalling, CAGA12 luciferase reporter in A549 cells (TGFβ1 [4]): ~2 ng/mL
- IC50; inhibition of TGFβ1 signalling, CAGA12 luciferase reporter in A549 cells (TGFβ1 [5]): 0.02 nM
B8: hTβRII (G4S)6-hFc (Fc fusion)
chain: GATIPPHVQKSDVEMEAQKDEIICPSCNRTAHPLRHINNDMIVTDNNGAVKFPQLCKFCDVRFSTCDNQKSCMSNCSITSICEKPQEVCVAVWRKNDENITLETVCHDPKLPYHDFILEDAASPKCIMKEKKKPGETFFMCSCSSDECNDNIIFSEEYNTSNPDTGGGGSGGGGSGGGGSGGGGSGGGGSGGG[sequence of human IgG1 Fc and a few adjoining residues not given]
notes: Expressed in CHO cells
